A lower IC50 marks a more sensitive line; a fit beyond the top or the lowest dose is shown as a bound at that dose. For AUC the same curve is integrated over the 256-fold range of doses and scaled to a fraction; the more sensitive the line, the further below 1. A top dose marked as inferred comes from the curve model; the source does not state it. For some of these results: Where an entry number is given, a second screen of the drug exists; the two often differ.
Tests used:
AKT inhibitor VIII = compound: O=c1[nH]c2ccccc2n1C1CCN(Cc2ccc(-c3[nH]c4cc5ncnc5cc4nc3-c3ccccc3)cc2)CC1 [AKT inhibitor VIII]; assay: Viability of human cancer cell lines after 72 h of drug (GDSC screen); settings: top dose inferred
Procedure: (§1)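 Human cancer cell lines in 384-well plates, medium with 10% serum, drug for 72 h over a 256-fold dose range (nine 2-fold or five 4-fold steps up to the top dose). Adherent lines were fixed and stained with the nucleic acid dye Syto60, suspension lines read with resazurin; signal relative to control wells, capped at 0 and 100%. One two-parameter sigmoid per drug and line, fitted in a mixed model over all curves with the slope shared within a line.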

AICAR = compound: NC(=O)c1ncn([C@@H]2O[C@H](CO)[C@@H](O)[C@H]2O)c1N [AICAR]; assay: as above; settings: top dose 2000 µM; top dose inferred
Procedure: as §1

[1] = top dose 2.56 µM, screen: GDSC drug entry 171
[2] = top dose 10.24 µM, screen: GDSC drug entry 228

| Cell Line | AUC (AKT inhibitor VIII; [1]) | IC50 (AKT inhibitor VIII; [1]) [µM] | AUC (AKT inhibitor VIII; [2]) | IC50 (AKT inhibitor VIII; [2]) [µM] | AUC (AICAR) | IC50 (AICAR) [µM] |
| --- | --- | --- | --- | --- | --- | --- |
| DMS-53 (small cell lung carcinoma, adherent) | 0.976 | > 2.56 | 0.93 | > 10.2 | 0.986 | > 2000 |
| DMS-79 (small cell lung carcinoma, suspension) | 0.959 | > 2.56 | 0.914 | > 10.2 | 0.955 | > 2000 |
| DMS-273 (small cell lung carcinoma, adherent) | 0.849 | 2.11 | 0.956 | > 10.2 | 0.926 | > 2000 |
| DND-41 (T-cell leukaemia, suspension) | 0.97 | > 2.56 | 0.52 | 0.721 | 0.699 | 418 |
| DOHH-2 (B-cell lymphoma, suspension) | 0.974 | > 2.56 | – | – | 0.812 | 1040 |
| DOK (head and neck, adherent) | 0.789 | 1.83 | 0.883 | > 10.2 | 0.69 | 565 |
| DOV13 (ovary, adherent) | – | – | 0.971 | > 10.2 | 0.86 | > 2000 |
| DSH1 (bladder, adherent) | 0.777 | 0.984 | 0.743 | 3.07 | 0.889 | > 2000 |
| DU-145 (prostate, adherent) | 0.947 | > 2.56 | 0.982 | > 10.2 | 0.897 | > 2000 |
| DU-4475 (breast, suspension) | 0.956 | > 2.56 | 0.872 | 6.79 | 0.81 | 823 |
| Daoy (medulloblastoma, adherent) | 0.964 | > 2.56 | 0.937 | > 10.2 | 0.852 | 1330 |
| Daudi (Burkitt lymphoma, suspension) | 0.94 | > 2.56 | 0.899 | 10.1 | 0.781 | 719 |
| Detroit562 (head and neck, adherent) | 0.889 | > 2.56 | 0.923 | > 10.2 | 0.824 | 1130 |
| DoTc2-4510 (cervix, adherent) | 0.878 | 2.36 | 0.924 | > 10.2 | 0.886 | > 2000 |
| EB2 (Burkitt lymphoma, suspension) | 0.938 | > 2.56 | 0.341 | 0.243 | 0.954 | > 2000 |
| EB-3 (Burkitt lymphoma, suspension) | 0.952 | > 2.56 | 0.734 | 3.36 | 0.969 | > 2000 |
| EBC-1 (lung squamous cell carcinoma, adherent) | 0.972 | > 2.56 | 0.883 | > 10.2 | 0.832 | 1510 |
| EC-GI-10 (oesophagus, adherent) | 0.989 | > 2.56 | 0.989 | > 10.2 | 0.911 | > 2000 |
| ECC10 (stomach, suspension) | 0.947 | > 2.56 | 0.863 | 9.51 | 0.79 | 933 |
| EFM-19 (breast, adherent) | 0.637 | 0.464 | 0.585 | 1.23 | 0.667 | 466 |
| EFM-192A (breast, adherent) | 0.966 | > 2.56 | 0.804 | 5.8 | 0.985 | > 2000 |
| EFO-21 (ovary, adherent) | 0.862 | > 2.56 | 0.869 | > 10.2 | 0.972 | > 2000 |
| EFO-27 (ovary, adherent) | 0.946 | > 2.56 | 0.907 | > 10.2 | 0.847 | > 2000 |
| EGI-1 (biliary tract, adherent) | 0.923 | > 2.56 | 0.954 | > 10.2 | 0.9 | > 2000 |
| EHEB (lymphoid neoplasm, suspension) | 0.941 | > 2.56 | – | – | 0.746 | 897 |
| EJM (lymphoid neoplasm, semi-adherent) | 0.982 | > 2.56 | 0.851 | 5.99 | 0.809 | 846 |

| Cell Line | AUC (AKT inhibitor VIII; [1]) | IC50 (AKT inhibitor VIII; [1]) [µM] | AUC (AKT inhibitor VIII; [2]) | IC50 (AKT inhibitor VIII; [2]) [µM] | AUC (AICAR) | IC50 (AICAR) [µM] |
| --- | --- | --- | --- | --- | --- | --- |
| EKVX (lung adenocarcinoma, adherent) | 0.88 | > 2.56 | 0.952 | > 10.2 | 0.883 | > 2000 |
| EMC-BAC-1 (lung adenocarcinoma, adherent) | – | – | 0.77 | 4.42 | 0.781 | 956 |
| EMC-BAC-2 (lung adenocarcinoma, adherent) | – | – | 0.923 | > 10.2 | 0.972 | > 2000 |
| EN (endometrium, adherent) | 0.984 | > 2.56 | 0.831 | 9 | 0.977 | > 2000 |
| EPLC-272H (lung squamous cell carcinoma, adherent) | 0.961 | > 2.56 | 0.823 | 7.09 | 0.739 | 667 |
| ES1 (Ewing sarcoma, adherent) | 0.944 | > 2.56 | 0.5 | 0.639 | 0.89 | > 2000 |
| ES5 (Ewing sarcoma, adherent) | 0.882 | > 2.56 | 0.497 | 0.629 | 0.897 | > 2000 |
| ES6 (Ewing sarcoma, adherent) | 0.89 | > 2.56 | 0.646 | 1.8 | 0.954 | > 2000 |
| ES7 (Ewing sarcoma, adherent) | 0.777 | 1.06 | 0.494 | 0.617 | 0.857 | 1690 |
| ES-2 (ovary, adherent) | 0.991 | > 2.56 | 0.915 | > 10.2 | 0.839 | 1140 |
| ESO26 (oesophagus, adherent) | – | – | 0.725 | 2.66 | 0.745 | 598 |
| ESO51 (oesophagus, semi-adherent) | – | – | 0.911 | > 10.2 | 0.771 | 1100 |
| ESS-1 (endometrium, adherent) | 0.982 | > 2.56 | 0.828 | 5.45 | 0.877 | 1660 |
| ETK-1 (biliary tract, adherent) | 0.893 | > 2.56 | 0.921 | > 10.2 | 0.732 | 634 |
| EVSA-T (breast, adherent) | 0.982 | > 2.56 | 0.643 | 1.5 | 0.883 | 1610 |
| EW-3 (Ewing sarcoma, adherent) | 0.897 | > 2.56 | 0.76 | 4.09 | 0.88 | > 2000 |
| EW-7 (Ewing sarcoma, semi-adherent) | 0.971 | > 2.56 | 0.668 | 1.76 | 0.903 | > 2000 |
| EW-11 (Ewing sarcoma, adherent) | 0.894 | > 2.56 | 0.598 | 1.28 | 0.824 | 1690 |
| EW-13 (Ewing sarcoma, suspension) | 0.985 | > 2.56 | 0.662 | 1.91 | 0.884 | > 2000 |
| EW-18 (Ewing sarcoma, suspension) | 0.956 | > 2.56 | 0.588 | 1.13 | 0.86 | 1870 |
| EW-24 (Ewing sarcoma, semi-adherent) | 0.991 | > 2.56 | 0.912 | > 10.2 | 0.927 | > 2000 |
| EoL-1-cell (haematopoietic neoplasm, suspension) | 0.955 | > 2.56 | 0.779 | 3.69 | 0.492 | 119 |
| FADU (head and neck, adherent) | 0.979 | > 2.56 | 0.966 | > 10.2 | 0.839 | 1290 |
| FLO-1 (oesophagus, adherent) | – | – | 0.889 | > 10.2 | 0.963 | > 2000 |
| FTC-133 (thyroid, adherent) | 0.908 | > 2.56 | 0.986 | > 10.2 | 0.978 | > 2000 |
| FU97 (stomach, adherent) | 0.823 | 1.57 | 0.818 | 5.97 | 0.962 | > 2000 |

| Cell Line | AUC (AKT inhibitor VIII; [1]) | IC50 (AKT inhibitor VIII; [1]) [µM] | AUC (AKT inhibitor VIII; [2]) | IC50 (AKT inhibitor VIII; [2]) [µM] | AUC (AICAR) | IC50 (AICAR) [µM] |
| --- | --- | --- | --- | --- | --- | --- |
| FU-OV-1 (ovary, adherent) | 0.887 | > 2.56 | 0.91 | > 10.2 | 0.962 | > 2000 |
| G-292 Clone A141B1 (osteosarcoma, adherent) | 0.974 | > 2.56 | 0.923 | > 10.2 | 0.863 | > 2000 |
| G-361 (melanoma, adherent) | 0.981 | > 2.56 | 0.902 | > 10.2 | 0.972 | > 2000 |
| G-402 (soft tissue, adherent) | 0.765 | 1.25 | 0.63 | 1.65 | 0.841 | > 2000 |
| G-MEL (melanoma, adherent) | 0.948 | > 2.56 | 0.919 | > 10.2 | 0.979 | > 2000 |
| GA-10 (Burkitt lymphoma, suspension) | 0.962 | > 2.56 | – | – | 0.805 | 829 |
| GAK (melanoma, adherent) | 0.967 | > 2.56 | 0.974 | > 10.2 | 0.987 | > 2000 |
| GB-1 (glioma, adherent) | 0.943 | > 2.56 | 0.958 | > 10.2 | 0.905 | > 2000 |
| GCIY (stomach, adherent) | 0.96 | > 2.56 | 0.944 | > 10.2 | 0.984 | > 2000 |
| GDM-1 (acute myeloid leukaemia, suspension) | 0.942 | > 2.56 | 0.407 | 0.36 | 0.795 | 886 |
| GI-ME-N (neuroblastoma, adherent) | 0.946 | > 2.56 | 0.896 | > 10.2 | 0.956 | > 2000 |
| GMS-10 (glioma, adherent) | 0.97 | > 2.56 | 0.988 | > 10.2 | 0.771 | 759 |
| GRANTA-519 (B-cell lymphoma, suspension) | 0.991 | > 2.56 | 0.713 | 2.38 | 0.814 | 956 |
| H4 (glioma, adherent) | 0.972 | > 2.56 | 0.933 | > 10.2 | 0.968 | > 2000 |
| H9 (lymphoid neoplasm, suspension) | 0.988 | > 2.56 | 0.981 | > 10.2 | 0.829 | 954 |
| H290 (mesothelioma, adherent) | 0.962 | > 2.56 | 0.987 | > 10.2 | 0.859 | 1440 |
| H513 (mesothelioma, semi-adherent) | 0.937 | > 2.56 | 0.908 | > 10.2 | 0.901 | > 2000 |
| H2369 (mesothelioma, adherent) | 0.652 | 0.428 | 0.974 | > 10.2 | 0.904 | > 2000 |
| H2373 (mesothelioma, adherent) | 0.965 | > 2.56 | 0.935 | > 10.2 | 0.868 | > 2000 |
| H2461 (mesothelioma, adherent) | – | – | 0.931 | > 10.2 | 0.951 | > 2000 |
| H2595 (mesothelioma, adherent) | 0.939 | > 2.56 | 0.921 | > 10.2 | 0.978 | > 2000 |
| H2722 (mesothelioma, adherent) | 0.937 | > 2.56 | 0.983 | > 10.2 | 0.984 | > 2000 |
| H2731 (mesothelioma, adherent) | 0.897 | > 2.56 | 0.727 | 3.15 | 0.977 | > 2000 |
| H2795 (mesothelioma, adherent) | 0.947 | > 2.56 | 0.826 | 6.1 | 0.964 | > 2000 |
| H2869 (mesothelioma, adherent) | 0.968 | > 2.56 | 0.888 | > 10.2 | 0.928 | > 2000 |
| H3118 (head and neck, adherent) | 0.806 | 1.45 | 0.86 | 9.96 | 0.692 | 455 |

From the supplement of paper PMC4967469
